Results as given in US20250064779A1, “COMPOSITIONS AND METHODS FOR THE TREATMENT OF DEPRESSION” (Janssen Pharmaceuticals, Inc., priority 2022, published 2025).

Key:
[1] = system: subjects with MDD who have had an inadequate response to SSRI/SNRI treatment; test: SHAPS total score (anhedonia), Example 1; type: in vivo, human; conditions: for SHAPS Total Score: Mean (SD) / SHAPS Total Score: Mean Change to Placebo (SD pooled): 10 mg adjunctive to SSRI/SNRI; for SHAPS Total Score: Change from Baseline LSMean (SE) / SHAPS Total Score: LSMean Difference (SE) Treatment-Placebo: MMRM; for SHAPS Total Score: Effect Size: vs placebo, negative favors aticaprant
Excerpt: To assess a potential effect on anhedonia, an anhedonia scale may be used. For example, the Snaith-Hamilton Pleasure Scale (SHAPS) analysis is a validated scale for the measurement of anhedonia. The SHAPS is a subject completed scale in which subjects score whether or not they experience pleasure in performing a list of activities or experiences. The SHAPS is a self-reported 14-item instrument, developed for the assessment of hedonic capacity. Subjects score whether they experience pleasure in performing a list of activities or experiences. Subjects can rate the answers as 1-4 where 1 indicates “Definitely agree”, 2 indicates “Agree”, 3 indicates “Disagree” and 4 indicates “Definitely disagree”. The subject's item responses are summed to provide a total score ranging from 14 to 56. A higher total SHAPS score indicates higher levels of current anhedonia. Physician/clinical judgment can be used to assess anhedonia separately or in conjunction with an anhedonia scale.
In some embodiments, the patient has anhedonia. In some embodiments, the patient has moderate anhedonia. In other embodiments, the patient has severe anhedonia. An assessment of moderate or severe anhedonia is typically determined physician/clinical judgment and/or by one or more tests that provide insight into whether a patient has anhedonia. For example, the severity of the anhedonia may be determined using the SHAPS method. In some embodiments, a patient with moderate or severe anhedonia is considered to have a high level of anhedonia. For example, a patient with a SHAPS score of 38 or greater is considered to have moderate to severe anhedonia that can be considered a high level of anhedonia. In some embodiments, a high level of anhedonia is reflected by a SHAPS score of at least about 40, about 42, about 44, about 46, about 48, about 50, about 52, about 54, about 56, about 58, or higher. A patient with mild or no anhedonia would be considered to have a low level of anhedonia that is assessed by physician/clinical judgment and/or one or more tests. For example, a patient with a SHAPS score of less than 38 is considered to have low anhedonia. In certain embodiments, a patient with mild anhedonia may have a SHAPS score of 20 to less than 38, for example, a SHAPS score of 20 to about 36, about 22 to about 36, about 24 to about 36, about 26 to about 36, about 26 to about 34, about 26 to about 32, about 26 to about 30, about 26 to about 28, about 28 to about 36, about 28 to about 36, about 30, to about 36, about 32 to about 36, about 34 to about 36, about 20 to about 34, about 22 to about 34, about 24 to about 34, about 26 to about 32, about 26 to about 30, about 26 to about 28, about 28 to about 36, about 28 to about 34, about 28 to about 32, about 28 to about 30, about 30 to about 36, about 30 to about 34, about 30 to about 32, about 32 to about 36, about 32 to about 34, or about 34 to about 36. Typically, a SHAPS score of less than 20 can be considered to correspond to normal hedonic functioning, and for purposes of this disclosure, would fall into the low category of anhedonia, e.g., a SHAPS score of less than 38.

[2] = system: subjects with MDD who have had an inadequate response to SSRI/SNRI treatment; test: ASEX sexual functioning, Example 1; type: in vivo, human
Excerpt: As used herein, the term “decrease in sexual functioning” refers to reducing or lessening of one or more components of the human sex drive, i.e., sexual functioning. In some embodiments, the sexual functioning comprises one or more of sexual drive, sexual arousal, vaginal lubrication, erection, orgasm achievement, or orgasm satisfaction. In other embodiments, the sexual functioning comprises sexual drive. In further embodiments, the sexual functioning comprises vaginal lubrication satisfaction. In further embodiments, the sexual functioning comprises orgasm achievement. In yet other embodiments, the sexual functioning comprises orgasm satisfaction. Desirably, the patient's sexual functioning is assessed at the time of initial administration of the aticaprant. Thus, the patient's sexual functioning while taking aticaprant can be compared to the patient's sexual functioning before administration of aticaprant. Sexual functioning may be assessed by using standard scales and techniques such as the Arizona Sexual Experience Scale (ASEX). The ASEX is used to investigate whether aticaprant has a further positive or negative effect on sexual function. The ASEX is 5 item rating scale administered to patients that quantifies sexual drive, sexual arousal, vaginal lubrication or penile erection, ability to reach orgasm and satisfaction. Scores range from 5 to 30, and two different versions of the scale are available (males and females).
Patients had their sexual functioning measured using a standard, well accepted rating scale: ASEX. See, Table 32.

[3] = Treatment Week 6, eITT, N 59, number of subjects (%)
[4] = Treatment Week 6, fITT, N 77, number of subjects (%)

Cc1cc(C)cc(C2CCCN2Cc2ccc(Oc3ccc(C(N)=O)cc3F)cc2)c1 (centres unmarked) [aticaprant, 3-fluoro-4-4-2-(3,5-dimethylphenyl)pyrrolidin-1-yl-methylphenoxybenzamide]
Frequency of subjects with High Level of Anhedonia (SHAPS Total Score >= 38) [1, 3]: 8 (13.56%)
Frequency of subjects with Low Level of Anhedonia (20 <= SHAPS Total Score < 38) [1, 3]: 48 (81.36%)
Frequency of subjects with No Anhedonia (SHAPS Total Score <20) [1, 3]: 3 (5.08%)
Frequency of subjects with High Level of Anhedonia (SHAPS Total Score >= 38) [1, 4]: 8 (10.39%)
Frequency of subjects with Low Level of Anhedonia (20 >= SHAPS Total Score < 38) [1, 4]: 62 (80.52%)
Frequency of subjects with No Anhedonia (SHAPS Total Score <20) [1, 4]: 7 (9.09%)
SHAPS Total Score: Mean (SD) ([1]; eITT, Treatment Week 1): 34.5
SHAPS Total Score: Mean Change to Placebo (SD pooled) ([1]; eITT, Treatment Week 1): −0.6 (3.77)
SHAPS Total Score: Change from Baseline LSMean (SE) ([1]; eITT, Treatment Week 1): −1.7
SHAPS Total Score: LSMean Difference (SE) Treatment-Placebo ([1]; eITT, Treatment Week 1): −0.8
SHAPS Total Score: Effect Size ([1]; eITT, Treatment Week 1): −0.15
SHAPS Total Score: Mean (SD) ([1]; eITT, Treatment Week 3): 33.0
SHAPS Total Score: Mean Change to Placebo (SD pooled) ([1]; eITT, Treatment Week 3): −1.2 (4.96)
SHAPS Total Score: Change from Baseline LSMean (SE) ([1]; eITT, Treatment Week 3): −3.2
SHAPS Total Score: LSMean Difference (SE) Treatment-Placebo ([1]; eITT, Treatment Week 3): −1.4
SHAPS Total Score: Effect Size ([1]; eITT, Treatment Week 3): −0.25
SHAPS Total Score: Mean (SD) ([1]; eITT, Treatment Week 4): 32.0
SHAPS Total Score: Mean Change to Placebo (SD pooled) ([1]; eITT, Treatment Week 4): −1.2 (5.21)
SHAPS Total Score: Change from Baseline LSMean (SE) ([1]; eITT, Treatment Week 4): −4.3
SHAPS Total Score: LSMean Difference (SE) Treatment-Placebo ([1]; eITT, Treatment Week 4): −1.4
SHAPS Total Score: Effect Size ([1]; eITT, Treatment Week 4): −0.23
SHAPS Total Score: Mean (SD) ([1]; eITT, Treatment Week 5): 32.4
SHAPS Total Score: Mean Change to Placebo (SD pooled) ([1]; eITT, Treatment Week 5): −0.4 (5.49)
SHAPS Total Score: Change from Baseline LSMean (SE) ([1]; eITT, Treatment Week 5): −4.0
SHAPS Total Score: LSMean Difference (SE) Treatment-Placebo ([1]; eITT, Treatment Week 5): −0.5
SHAPS Total Score: Effect Size ([1]; eITT, Treatment Week 5): −0.08
SHAPS Total Score: Mean (SD) ([1]; eITT, Treatment Week 6): 31.9
SHAPS Total Score: Mean Change to Placebo (SD pooled) ([1]; eITT, Treatment Week 6): −0.4 (5.66)
SHAPS Total Score: Change from Baseline LSMean (SE) ([1]; eITT, Treatment Week 6): −4.4
SHAPS Total Score: LSMean Difference (SE) Treatment-Placebo ([1]; eITT, Treatment Week 6): −0.7
SHAPS Total Score: Mean (SD) ([1]; fITT, Treatment Week 1): 32.9
SHAPS Total Score: Mean Change to Placebo (SD pooled) ([1]; fITT, Treatment Week 1): −0.6 (3.82)
SHAPS Total Score: Change from Baseline LSMean (SE) ([1]; fITT, Treatment Week 1): −1.9
SHAPS Total Score: LSMean Difference (SE) Treatment-Placebo ([1]; fITT, Treatment Week 1): −1.0
SHAPS Total Score: Effect Size ([1]; fITT, Treatment Week 1): −0.15
SHAPS Total Score: Mean (SD) ([1]; fITT, Treatment Week 3): 31.9
SHAPS Total Score: Mean Change to Placebo (SD pooled) ([1]; fITT, Treatment Week 3): −1.0 (5.09)
SHAPS Total Score: Change from Baseline LSMean (SE) ([1]; fITT, Treatment Week 3): −3.1
SHAPS Total Score: LSMean Difference (SE) Treatment-Placebo ([1]; fITT, Treatment Week 3): −1.4
SHAPS Total Score: Effect Size ([1]; fITT, Treatment Week 3): −0.20
SHAPS Total Score: Mean (SD) ([1]; fITT, Treatment Week 4): 30.8
SHAPS Total Score: Mean Change to Placebo (SD pooled) ([1]; fITT, Treatment Week 4): −1.2 (5.08)
SHAPS Total Score: Change from Baseline LSMean (SE) ([1]; fITT, Treatment Week 4): −4.1
SHAPS Total Score: LSMean Difference (SE) Treatment-Placebo ([1]; fITT, Treatment Week 4): −1.6
SHAPS Total Score: Effect Size ([1]; fITT, Treatment Week 4): −0.23
SHAPS Total Score: Mean (SD) ([1]; fITT, Treatment Week 5): 30.9
SHAPS Total Score: Mean Change to Placebo (SD pooled) ([1]; fITT, Treatment Week 5): −0.5 (5.24)
SHAPS Total Score: Change from Baseline LSMean (SE) ([1]; fITT, Treatment Week 5): −4.1
SHAPS Total Score: LSMean Difference (SE) Treatment-Placebo ([1]; fITT, Treatment Week 5): −0.8
SHAPS Total Score: Effect Size ([1]; fITT, Treatment Week 5): −0.09
SHAPS Total Score: Mean (SD) ([1]; fITT, Treatment Week 6): 30.5
SHAPS Total Score: Mean Change to Placebo (SD pooled) ([1]; fITT, Treatment Week 6): −0.5 (5.45)
SHAPS Total Score: Change from Baseline LSMean (SE) ([1]; fITT, Treatment Week 6): −4.5
SHAPS Total Score: LSMean Difference (SE) Treatment-Placebo ([1]; fITT, Treatment Week 6): −0.8
ASEX score: Absolute Change ([2]; baseline to endpoint, n = 85): −1.47
ASEX score: Relative % Change ([2]; baseline to endpoint, n = 85): −6.91%
ASEX score: Endpoint ([2]; n = 85, lower score indicates improvement): 19.79
sexual functioning (ASEX) ([2]; patients receiving aticaprant): notable improvements
ASEX total score: mean change from treatment baseline (SD) ([2]; to week 6, lower score indicates improvement): −1.5 (4.02) points
